Laboratory results as given in the supplement of paper PMC7826260.
The list shows a part of the results. Cleavage of a single-stranded DNA pool by Rep nickase domains was read by sequencing for 1 h at 37 °C with 3 µM enzyme; only the middle of the 90-letter strands is printed. Uncut reads are compared with the no-enzyme pool on a log2 scale; more negative means more cut, near 0 not cut, and no call is made. Shares of all reads are compared; where an enzyme cuts many sequences, the uncut ones exceed 0.

Each sequence was assayed on T1, Rep nickase domain of maize striate mosaic virus (assay: uncleaved DNA left, log2 of reads against the no-enzyme library (log2 ratio); higher = less cleavage (more negative = more Rep cleavage of the k-mer); sequences stand for … in CTCGTCCG…ACCGGAGA).
T1 sequence (residues 1-117, tag not shown): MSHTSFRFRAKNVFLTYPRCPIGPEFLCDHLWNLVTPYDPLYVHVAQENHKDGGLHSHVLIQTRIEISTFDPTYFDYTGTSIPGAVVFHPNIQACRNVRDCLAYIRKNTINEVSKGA
Method: (§1)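 A pool of 90-nt single-stranded DNAs with seven random bases just before the constant AC of the nick site (name = the seven bases) was cut by 3 µM recombinant His6-SUMO-tagged Rep nickase domain (300 nM DNA, 50 mM HEPES pH 8.0, 50 mM NaCl, 1 mM MnCl2, 1 h, 37 °C, three replicates). Uncut DNA was amplified and sequenced.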
For GGTGGTG, the “uncleaved DNA left (log2)” value was -0.0326.
In the case of GGCTTCC, the “uncleaved DNA left (log2)” value is reported as 1.8.
In the case of ACGGGAA, the “uncleaved DNA left (log2)” value is reported as 0.338.
With CTGGGCC the “uncleaved DNA left (log2)” value was 0.152.
For ACAGAAG, the “uncleaved DNA left (log2)” value was -0.402.
In the case of GCTGTAT, the “uncleaved DNA left (log2)” value is reported as 0.724.
For TCAGACT, the “uncleaved DNA left (log2)” value was 0.749.
In the case of ATGCGAC, the “uncleaved DNA left (log2)” value is reported as -0.081.
ATCAGCT was tested, and the “uncleaved DNA left (log2)” value was -1.04.
ACCTAAA was tested, and the “uncleaved DNA left (log2)” value was -0.93.
In the case of CCGGTTC, the “uncleaved DNA left (log2)” value is reported as 1.4.
CCACATG was tested, and the “uncleaved DNA left (log2)” value was -1.01.
CTATCTA was tested, and the “uncleaved DNA left (log2)” value was -0.502.
For AGGCCAG, the “uncleaved DNA left (log2)” value was -0.425.
For CGTCCGA, the “uncleaved DNA left (log2)” value was 0.37.
In the case of GGATCAT, the “uncleaved DNA left (log2)” value is reported as 2.21.
ATAGTTA was tested, and the “uncleaved DNA left (log2)” value was -0.456.
With CTATACA the “uncleaved DNA left (log2)” value was -0.59.
CATTGCA was tested, and the “uncleaved DNA left (log2)” value was 0.122.
TCTGCAC was tested, and the “uncleaved DNA left (log2)” value was -1.12.
For CGAATTT, the “uncleaved DNA left (log2)” value was -0.464.
For GCTCGCG, the “uncleaved DNA left (log2)” value was -0.0534.
In the case of GTGCGAC, the “uncleaved DNA left (log2)” value is reported as 0.466.
In the case of CCGGGCA, the “uncleaved DNA left (log2)” value is reported as 1.38.
For CGTGCCC, the “uncleaved DNA left (log2)” value was -0.206.
For GTGAGCT, the “uncleaved DNA left (log2)” value was 0.805.
In the case of CTTCTAG, the “uncleaved DNA left (log2)” value is reported as -1.23.
In the case of TCCGCGT, the “uncleaved DNA left (log2)” value is reported as -0.726.
For ACACTCC, the “uncleaved DNA left (log2)” value was 1.01.
With CAAGTTA the “uncleaved DNA left (log2)” value was -0.513.
With TTCAGTT the “uncleaved DNA left (log2)” value was -0.365.
GTCGATA was tested, and the “uncleaved DNA left (log2)” value was 1.49.
In the case of TCGTGTT, the “uncleaved DNA left (log2)” value is reported as -0.717.
ATGATAT was tested, and the “uncleaved DNA left (log2)” value was 0.287.
For TAGGTTA, the “uncleaved DNA left (log2)” value was 1.39.
With CCTCCGA the “uncleaved DNA left (log2)” value was -0.825.
In the case of AGAAAGG, the “uncleaved DNA left (log2)” value is reported as 0.0203.
With TTGGATC the “uncleaved DNA left (log2)” value was 0.85.
With TCACATG the “uncleaved DNA left (log2)” value was -1.01.
In the case of CACCCCG, the “uncleaved DNA left (log2)” value is reported as -0.836.

What follows are sequences tested on T2, Rep nickase domain of porcine circovirus 2 in the same assay as above.
T2 sequence (residues 2-116, tag not shown): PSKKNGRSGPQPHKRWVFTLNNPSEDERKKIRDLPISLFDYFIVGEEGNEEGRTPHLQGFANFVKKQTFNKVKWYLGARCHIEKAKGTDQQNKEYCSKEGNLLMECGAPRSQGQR
Method: as §1
For GGTGGTG, the “uncleaved DNA left (log2)” value was 0.169.
For GGCTTCC, the “uncleaved DNA left (log2)” value was 0.111.
For ACGGGAA, the “uncleaved DNA left (log2)” value was 0.174.
CTGGGCC was tested, and the “uncleaved DNA left (log2)” value was 0.0966.
With ACAGAAG the “uncleaved DNA left (log2)” value was 0.241.
GCTGTAT was tested, and the “uncleaved DNA left (log2)” value was 0.0325.
For TCAGACT, the “uncleaved DNA left (log2)” value was 0.0306.
In the case of ATGCGAC, the “uncleaved DNA left (log2)” value is reported as 0.198.
With ATCAGCT the “uncleaved DNA left (log2)” value was 0.125.
For ACCTAAA, the “uncleaved DNA left (log2)” value was 0.0105.
CCGGTTC was tested, and the “uncleaved DNA left (log2)” value was 0.0353.
In the case of CCACATG, the “uncleaved DNA left (log2)” value is reported as 0.165.
In the case of CTATCTA, the “uncleaved DNA left (log2)” value is reported as -0.151.
With AGGCCAG the “uncleaved DNA left (log2)” value was 0.0794.
In the case of CGTCCGA, the “uncleaved DNA left (log2)” value is reported as -0.0286.
GGATCAT was tested, and the “uncleaved DNA left (log2)” value was 0.0515.
ATAGTTA was tested, and the “uncleaved DNA left (log2)” value was -0.12.
CTATACA was tested, and the “uncleaved DNA left (log2)” value was -0.128.
In the case of CATTGCA, the “uncleaved DNA left (log2)” value is reported as 0.046.
With TCTGCAC the “uncleaved DNA left (log2)” value was 0.0198.
With CGAATTT the “uncleaved DNA left (log2)” value was -0.303.
GCTCGCG was tested, and the “uncleaved DNA left (log2)” value was 0.0294.
In the case of GTGCGAC, the “uncleaved DNA left (log2)” value is reported as 0.155.
In the case of CCGGGCA, the “uncleaved DNA left (log2)” value is reported as -0.074.
In the case of CGTGCCC, the “uncleaved DNA left (log2)” value is reported as -0.107.
With GTGAGCT the “uncleaved DNA left (log2)” value was 0.0022.
In the case of CTTCTAG, the “uncleaved DNA left (log2)” value is reported as 0.133.
With TCCGCGT the “uncleaved DNA left (log2)” value was 0.133.
In the case of ACACTCC, the “uncleaved DNA left (log2)” value is reported as 0.143.
With CAAGTTA the “uncleaved DNA left (log2)” value was -0.156.
TTCAGTT was tested, and the “uncleaved DNA left (log2)” value was -0.336.
GTCGATA was tested, and the “uncleaved DNA left (log2)” value was -0.00626.
For TCGTGTT, the “uncleaved DNA left (log2)” value was -3.44.
In the case of ATGATAT, the “uncleaved DNA left (log2)” value is reported as -0.135.
In the case of TAGGTTA, the “uncleaved DNA left (log2)” value is reported as -0.288.
CCTCCGA was tested, and the “uncleaved DNA left (log2)” value was 0.0945.
With AGAAAGG the “uncleaved DNA left (log2)” value was 0.235.
In the case of TTGGATC, the “uncleaved DNA left (log2)” value is reported as -0.0198.
With TCACATG the “uncleaved DNA left (log2)” value was 0.0768.
CACCCCG was tested, and the “uncleaved DNA left (log2)” value was -0.471.

Each sequence was assayed on T3, Rep nickase domain of tomato golden mosaic virus in the same assay as above.
T3 sequence (residues 1-124, tag not shown): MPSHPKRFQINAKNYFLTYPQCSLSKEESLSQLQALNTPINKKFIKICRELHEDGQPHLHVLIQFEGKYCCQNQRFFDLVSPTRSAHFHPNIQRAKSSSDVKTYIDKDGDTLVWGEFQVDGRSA
Method: as §1
In the case of GGTGGTG, the “uncleaved DNA left (log2)” value is reported as 0.0346.
For GGCTTCC, the “uncleaved DNA left (log2)” value was 0.0264.
In the case of ACGGGAA, the “uncleaved DNA left (log2)” value is reported as -0.165.
In the case of CTGGGCC, the “uncleaved DNA left (log2)” value is reported as -0.0403.
ACAGAAG was tested, and the “uncleaved DNA left (log2)” value was -0.0412.
In the case of GCTGTAT, the “uncleaved DNA left (log2)” value is reported as 0.0236.
For TCAGACT, the “uncleaved DNA left (log2)” value was -0.13.
With ATGCGAC the “uncleaved DNA left (log2)” value was 0.0833.
ATCAGCT was tested, and the “uncleaved DNA left (log2)” value was -0.00816.
With ACCTAAA the “uncleaved DNA left (log2)” value was -0.0209.
With CCGGTTC the “uncleaved DNA left (log2)” value was 0.15.
For CCACATG, the “uncleaved DNA left (log2)” value was 0.00751.
In the case of CTATCTA, the “uncleaved DNA left (log2)” value is reported as 0.00532.
For AGGCCAG, the “uncleaved DNA left (log2)” value was -0.0163.
In the case of CGTCCGA, the “uncleaved DNA left (log2)” value is reported as 0.0955.
For GGATCAT, the “uncleaved DNA left (log2)” value was -0.159.
In the case of ATAGTTA, the “uncleaved DNA left (log2)” value is reported as 0.0566.
In the case of CTATACA, the “uncleaved DNA left (log2)” value is reported as 0.0168.
In the case of CATTGCA, the “uncleaved DNA left (log2)” value is reported as -0.0972.
TCTGCAC was tested, and the “uncleaved DNA left (log2)” value was -0.144.
